Measurements from publication PMC4336329 (PLoS ONE, 2015).
Among all 310,000 compounds or so, about 2,200 (0.71%) showed an effect of 50% or more. Effects have a minus sign here. The list shows a part of the results.

molecular target: human ether-à-go-go-related gene (hERG) potassium channel (human, UniProt Q12809); assay: primary screen, population patch clamp on CHO cells stably expressing hERG
Sequence (Q12809 whole entry, looked up): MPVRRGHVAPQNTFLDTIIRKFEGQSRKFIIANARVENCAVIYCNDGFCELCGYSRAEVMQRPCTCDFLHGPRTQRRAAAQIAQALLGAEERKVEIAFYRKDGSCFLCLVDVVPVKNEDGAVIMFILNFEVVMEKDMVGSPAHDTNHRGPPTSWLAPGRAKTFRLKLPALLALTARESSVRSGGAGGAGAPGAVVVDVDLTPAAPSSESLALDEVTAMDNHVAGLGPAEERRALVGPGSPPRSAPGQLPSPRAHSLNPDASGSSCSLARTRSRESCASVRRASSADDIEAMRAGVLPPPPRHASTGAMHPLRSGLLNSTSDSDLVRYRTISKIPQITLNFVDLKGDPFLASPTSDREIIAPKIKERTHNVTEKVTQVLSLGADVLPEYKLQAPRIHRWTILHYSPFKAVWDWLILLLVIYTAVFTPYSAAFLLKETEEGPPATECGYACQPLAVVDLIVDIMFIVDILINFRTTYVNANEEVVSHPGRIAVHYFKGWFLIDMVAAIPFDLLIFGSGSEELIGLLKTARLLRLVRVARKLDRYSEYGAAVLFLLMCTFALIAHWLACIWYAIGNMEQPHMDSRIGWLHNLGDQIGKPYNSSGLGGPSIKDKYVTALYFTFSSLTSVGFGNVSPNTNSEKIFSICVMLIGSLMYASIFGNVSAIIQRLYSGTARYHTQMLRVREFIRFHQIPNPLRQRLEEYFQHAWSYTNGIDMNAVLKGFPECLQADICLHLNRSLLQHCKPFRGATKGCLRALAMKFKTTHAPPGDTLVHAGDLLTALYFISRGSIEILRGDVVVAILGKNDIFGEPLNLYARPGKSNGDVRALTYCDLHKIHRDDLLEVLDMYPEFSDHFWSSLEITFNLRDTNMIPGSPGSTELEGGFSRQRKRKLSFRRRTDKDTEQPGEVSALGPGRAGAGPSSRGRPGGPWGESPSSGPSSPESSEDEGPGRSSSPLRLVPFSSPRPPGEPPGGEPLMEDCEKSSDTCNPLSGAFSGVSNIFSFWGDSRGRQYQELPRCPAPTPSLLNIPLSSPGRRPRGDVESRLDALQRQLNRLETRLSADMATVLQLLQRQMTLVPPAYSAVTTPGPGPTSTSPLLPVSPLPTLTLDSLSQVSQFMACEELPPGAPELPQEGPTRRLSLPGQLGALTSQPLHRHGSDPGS

SMILES	hERG current change (%, negative = inhibition) at 1uM
CCC(CC)C(=O)N1N=C(c2ccc(NS(C)(=O)=O)cc2)CC1c1ccc(C)cc1 (stereo not drawn)	3.33%
O=C(c1ccccc1F)N1CCN(C(=O)C2CC2)CC1	7.06%
CC(Oc1ccccc1)C(=O)N1CCN(C(=O)C(C)Oc2ccccc2)CC1 (stereo not drawn)	13.6%
Cc1cc(C)n2nc(C(=O)OCC(=O)NCc3ccc(Cl)cc3)nc2n1	-0.25%
CCN(CC)c1ccc2cc(-c3nc4ccccc4[nH]3)c(=O)oc2c1	16.2%
CC(Sc1ccc2c(c1)OCCO2)C(=O)Nc1ncc(Cl)cc1Cl (stereo not drawn)	10.6%
CCn1c(SCC(=O)Nc2nnc(C)s2)nnc1-c1ccco1	-4.35%
CCOC(=O)c1sc2cc([N+](=O)[O-])cc(SCC(=O)OC)c2c1N	-1.61%
COc1ccc(NC(=O)/C=C/c2ccc(F)cc2)cn1	7.64%
C/C(=N/NC(=O)c1cc(-c2cccc([N+](=O)[O-])c2)n[nH]1)c1cccc(O)c1	15.5%
O=S(=O)(Nc1ccc(-n2cccc2)cc1)c1ccc(F)cc1	14%
O=S(=O)(c1cccc(NC(=S)N2CCN(c3cccc(Cl)c3)CC2)c1)C(F)F	3.04%
Cc1cc(NC(C)c2ccccc2)n2ncc(-c3ccccc3)c2n1 (stereo not drawn)	14%
O=C(c1ccc2ncsc2c1)N1CCCCC1	14.4%
CCc1cc2c(NCc3ccco3)ncnc2s1.Cl	-0.964%
CC(NC(=O)CSc1nnc2n1CCCCC2)c1ccccc1Cl (stereo not drawn)	4.87%
CC(=O)c1sc(NC(=O)CCS(=O)(=O)c2ccc(C)cc2)nc1C	12.8%
COc1ccc(S(=O)(=O)NCC(=O)N(CC(=O)NCC2CCCO2)c2ccccc2C)cc1 (stereo not drawn)	3.46%
CCOC(=O)CSc1n[nH]c(=S)s1	6.15%
COc1ccc(C(=O)NNC(=O)C(C)NC(=O)c2ccccc2NC(=O)c2ccco2)cc1 (stereo not drawn)	19.3%
CC(C)CCC(C(=O)O)C(C)CC(=O)NC1CCCCC1 (stereo not drawn)	1.26%
Cc1cccc(C(=O)NC(=S)Nc2ccccc2C(=O)O)c1	6.08%

SMILES	hERG current change (%, negative = inhibition) at 1uM
CN(Cc1ccccc1)C(=O)c1ccc(NC(=O)Cc2cccc(NC(=O)C3CCCN(C(=O)C4CCCC4)C3)c2)cc1 (stereo not drawn)	9.95%
Cc1nnc(Sc2cc(C(=O)NCCCN(C)Cc3ccccc3)c3ccccc3n2)s1	-30.7%
COc1c(C)cc(C(=O)C2CCCN(C(=O)C3=C(C)OCCO3)C2)cc1C (stereo not drawn)	3.6%
CN(Cc1cccs1)C(=O)c1ccc(S(=O)(=O)NCc2ccco2)cc1	-8.37%
COC(=O)C1=C(C)NC(=O)NC1c1ccc2c(c1)OCO2 (stereo not drawn)	21.7%
Cc1c(C=O)c(C=O)c(C)n1Cc1ccccc1	10.2%
Cc1ccc(NS(=O)(=O)c2sc3ccc(Cl)cc3c2C)cc1	12.1%
CCc1ccccc1OCCCCCNCCO	3.29%
Cc1cccc(NC(=O)c2nc(S(=O)(=O)Cc3ccccc3)ncc2Cl)c1	9.54%
Cc1nnc(NC(=O)CN2CCN(Cc3ccccc3Cl)CC2)s1	8.84%
Cc1cc(NC(=O)COC(=O)C(Nc2ccc(C(F)(F)F)cc2Cl)C(C)C)no1 (stereo not drawn)	19.6%
O=C1CCN(C(=O)Nc2cccc(Cl)c2)N1	20%
CC(C)CC(NC(=O)C1CCC(C)CC1)C(=O)NCc1cccnc1 (stereo not drawn)	4.53%
CCCOc1ccc(CNC(=O)Cc2cccs2)cc1	17.9%
CCOC(=O)c1[nH]c(C)c(C(=O)Nc2ccccc2C)c1C	5.7%
CC(C)C(=O)Nc1cccc(NC(=O)c2cccc(F)c2)c1	12.5%
S=c1[nH]c2ccccc2n1CCOc1ccccc1	13.4%
COC(=O)C1=C(c2ccc(Cl)c(C(F)(F)F)c2)C[C@@H]2CC[C@H]1N2C(=O)N1CCOCC1	11.4%
C=CCN(CC=C)S(=O)(=O)c1ccc(NC(=S)NC(=O)/C=C/c2ccccc2)cc1	0.318%
COc1ccccc1N1C(=O)C2C(C(=O)c3ccccc3)=NN(c3ccccc3)C2C1=O (stereo not drawn)	9.35%
NC(N)=N/N=C/c1ccc(OCc2ccc(Cl)cc2Cl)cc1	1.54%
O=P(c1ccccc1)(c1ccccc1)C(O)c1ccccn1 (stereo not drawn)	11.7%

SMILES	hERG current change (%, negative = inhibition) at 1uM
COCCCN(C(=O)c1cc(-c2ccco2)nc2ccccc12)c1c(N)n(Cc2ccccc2)c(=O)[nH]c1=O	-1.33%
CCOC(=O)c1c(NC(=O)c2cc3n(n2)C(C(F)(F)F)CC(c2ccccc2)N3)sc(C)c1C (stereo not drawn)	5.44%
COc1cccc(-c2nnc3n2N=C(C(C)(C)C)CS3)c1	-9.48%
COc1cc(/C=N/OCC(=O)Nc2cc(C)cc(C)c2)ccc1OCc1ccc(Cl)cc1	-11.4%
Cc1cc(=O)oc2cc(OC(C)C(=O)N3CCOCC3)ccc12 (stereo not drawn)	11.2%
COc1ccc(NC(=O)/C(=C/c2cccnc2)NC(=O)c2cccs2)cc1	10.9%
Cc1sc(NC(=O)c2ccco2)c(C(c2ccc(F)cc2)N2CCN(C)CC2)c1C (stereo not drawn)	0.441%
O=C(/C=C/Nc1ccc([N+](=O)[O-])cc1Br)c1cccc2ccccc12	4.86%
Cc1cc2c(Nc3cccc(O)c3)ncnc2s1.Cl	8.12%
N#CC1=C(N)N(c2ccc(F)cc2)C(=O)C1	9.83%
Cc1oc(-c2ccc(Cl)cc2)nc1CN1CCCN(C(=O)c2ccco2)CC1	-57.4%
COc1ccc(OC)c(C2C(C#N)=C(N)Oc3cc(C)[nH]c(=O)c32)c1 (stereo not drawn)	14.8%
O=C(COC(=O)c1cc([N+](=O)[O-])ccc1N1CCOCC1)NCCc1ccccc1	2.46%
Cc1cc(N2CCOCC2)nc(SCC(=O)c2ccccc2)n1	4.69%
O=C(CN1CCN(c2ccccc2)CC1)N1CCc2[nH]c3ccccc3c2C1	-9.44%
CCOc1ccc(S(=O)(=O)NCCC(=O)NCc2cccnc2)cc1	11.8%
O=C(NCc1cccnc1)c1ccc(NS(=O)(=O)c2ccccc2)cc1	-1.38%
COc1ccc(Cn2c(=O)[nH]c3cc(C(=O)NCc4ccc5c(c4)OCO5)ccc3c2=O)cc1	8.12%
CC(c1ccccc1)C1C(C#N)=C(N)OC2=C1C(=O)CC(C)(C)C2 (stereo not drawn)	-23.8%
O=C(Cn1ncc2c(=O)oc3ccccc3c21)N1CCN(c2ccccn2)CC1	-19.9%
Cc1ccc(Nc2ccncc2S(N)(=O)=O)cc1	5.89%
O=C(Nc1ccc2c(c1)OCO2)N1CCN(c2ncccn2)CC1	2.78%

SMILES	hERG current change (%, negative = inhibition) at 1uM
c1ccc(CSc2ncnc3sccc23)cc1	2.78%
CSc1cccc(NC(=S)N(CCN(C)C)C(C)c2ccncc2)c1 (stereo not drawn)	-1.28%
COc1cc2ncnc(N[C@H](C)c3ccccc3)c2cc1OC	2.27%
CCc1nc2sc(C#N)c(N)c2c2c1CCCC2	13.7%
COc1ccccc1/C=C/C=N/NC(=O)c1cnccn1	32.2%
COCCN(C(=O)c1snc(C(N)=O)c1N)C(C(=O)NC1CCCCC1)c1ccc(N(C)C)cc1 (stereo not drawn)	7.59%
Oc1cccc(/C=N/NP(=S)(c2ccccc2)c2ccccc2)c1	-5.2%
Cc1c(C(=O)c2cccc(F)c2)c2ccccn2c1CCC#N	4.8%
CCCCCCc1ccc(N2C[C@H](CCCCC)[C@@H](CC(=O)NCc3ccc(OC)cc3)C2=O)cc1	-14.4%
O=C(COC(=O)[C@H](Cc1ccccc1)NC(=O)c1cccs1)Nc1c(Cl)cccc1Cl	-8.27%
COc1ccc([C@H]2CC(=O)C=C(c3ccc(C(=O)O)cc3)C2)cc1OC	8.57%
CCCn1c(SCC(=O)c2c(N)n(C3CC3)c(=O)[nH]c2=O)nnc1-c1ccncc1	9.61%
Cc1ccc(S(=O)(=O)Nc2ccccc2)cc1C(=O)N1CCCC1	7.76%
Cc1ccccc1C(=O)Nc1cccc(-c2nnc(SCC(=O)O)n2C)c1	17.4%
COCC(C)n1c(SCc2nc(N)nc(Nc3ccccc3C)n2)nc2ccccc2c1=O (stereo not drawn)	13.5%
Cc1ccc(C(=O)Nc2ccc(S(=O)(=O)N3CCN(C)CC3)cc2)cc1	-2.89%
N=c1c(C(=O)NCCc2ccccc2)cc2c(=O)n3ccccc3nc2n1CC1CCCO1 (stereo not drawn)	-93.8%
COc1ccccc1NC(=O)Cn1c(=O)n(C)c(=O)c2sc3c(c21)COC(C)(C)C3	4.47%
O=C(COc1ccccc1)c1cn(Cc2ccccc2)c2ccccc12	8.91%
Cc1ccc(C(=O)c2oc3ccccc3c2NC(=O)c2cc(-c3cc(C)ccc3O)n[nH]2)cc1	17.2%
C=CCN1C=C2C(=O)C(C)(OC(=O)CCc3ccccc3)C(=O)C=C2C=C1c1ccc(C#N)cc1 (stereo not drawn)	4%
